PubChem BioAssay AID1768 (National Center for Advancing Translational Sciences (NCATS), 2009)
The campaign covered roughly 270,000 compounds. About 620 (0.23%) were called active. The inconclusive results got no clear call from the source; some entries with a clear call stand among them for comparison. Calls come from the whole dose curve; as a rule, active = well fitted inhibition curve with a large enough effect in the polarisation, with a control signal flat (not every such curve was filed as active); inconclusive = small, poorly fitted or top-dose-only effect, or effect the other way, or a change in a side signal; inactive = no such curve, though single readings can be large or run the other way; the % refers to the polarisation. A potency beside an inconclusive call is a rough fit, not a confirmed value. “Side channel” marks fits to a control or component signal instead of the main read-out.

These compounds were tested against Menin (Homo sapiens) (UniProt O00255) (assay: qHTS Assay for Inhibitors Targeting the Menin-MLL Interaction in MLL Related Leukemias: Competition With Texas Red Labeled MLL-derived Mutant Peptide). Settings: fluorescence polarization; FP activity change, negative = inhibition: at 61.6 µM (top of the series).
Potency is the fitted concentration of half-maximal effect; tags give direction and shape of the fitted curve or compound fluorescence and quenching.
Throughout, for FP activity change, negative = inhibition: % of control where 0% means no effect.

Chain of UniProt O00255 (O00255 whole entry, looked up): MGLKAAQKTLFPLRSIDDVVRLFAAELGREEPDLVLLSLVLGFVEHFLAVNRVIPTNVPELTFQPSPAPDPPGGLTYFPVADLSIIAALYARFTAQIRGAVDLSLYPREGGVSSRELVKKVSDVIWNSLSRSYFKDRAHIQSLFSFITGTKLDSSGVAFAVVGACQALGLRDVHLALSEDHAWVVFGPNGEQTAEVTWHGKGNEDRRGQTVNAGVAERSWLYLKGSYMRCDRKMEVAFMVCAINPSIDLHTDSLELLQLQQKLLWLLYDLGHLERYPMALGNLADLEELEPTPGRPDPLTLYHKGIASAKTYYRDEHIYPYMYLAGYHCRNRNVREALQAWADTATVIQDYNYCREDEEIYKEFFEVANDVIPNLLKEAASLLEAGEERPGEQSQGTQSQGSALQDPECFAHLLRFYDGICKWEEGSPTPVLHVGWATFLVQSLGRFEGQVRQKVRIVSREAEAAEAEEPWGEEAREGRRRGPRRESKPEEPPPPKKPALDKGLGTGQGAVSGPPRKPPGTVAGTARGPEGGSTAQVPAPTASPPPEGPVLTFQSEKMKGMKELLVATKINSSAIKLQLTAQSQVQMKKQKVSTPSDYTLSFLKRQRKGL

SMILES | Potency | FP activity change, negative = inhibition
O=C(O)c1cc(N/N=C/C(Cl)=C/c2ccccc2)ccc1Cl | inconclusive: 39.8 µM [fluorescent, side channel, single point] | –
COc1ccccc1C(=O)N/C(=C\c1ccccc1)C(=O)NC(C)C(=O)O (stereo unspecified) | inconclusive: 7.94 µM [fluorescent, side channel, partial curve, poor fit] | –
CC(C)/C=N/Nc1nc(-c2ccc(Br)cc2)cs1 | inconclusive: 17.8 µM [quencher, side channel, partial curve] | –
CCc1cc(-c2n[nH]c(C)c2Oc2ccc(C(C)C)cc2)c(O)cc1O | inconclusive: 11.2 µM [quencher, side channel, partial curve] | –
O=C(C1CCCN(Cc2cccnc2)C1)N1CCCCC1 (stereo unspecified) | inactive | –
COC1=CC(=O)C(C(=O)c2ccccc2)=CC1=O | inconclusive: 14.1 µM [quencher, side channel, partial curve] | –
O=C(NNC(=O)c1ccc([N+](=O)[O-])cc1)c1ccc(Br)cc1 | inconclusive: 39.8 µM [quencher, single point] | –
COc1cc(/C=C2/SC(=S)NC2=O)ccc1OS(=O)(=O)c1ccc(C)cc1 | inconclusive: 10 µM [quencher, side channel, partial curve] | –
O=C(COc1ccc(-c2nnc(N3CCCCC3)c3ccccc23)cc1)N1CCCCC1 | inconclusive: 11.2 µM [inhibitor, partial curve] | –
CCOc1ccc2nc(NC(=O)Nc3ccccc3)sc2c1 | inconclusive: 2.24 µM [quencher, side channel, full curve] | –
COc1ccc2[nH]cc(CCNc3ncncc3-c3ccc(C(=O)N(C)C)cc3)c2c1 | inactive | –
O=C(Nc1nnc(C(F)(F)F)s1)c1ccc(N2C(=O)C3C4C=CC(C4)C3C2=O)cc1 (stereo unspecified) | inconclusive: 25.1 µM [quencher, side channel, single point] | –
NCCCCCCCCCCNCCCN | inactive | –
CCOc1ccc(Br)cc1S(=O)(=O)Nc1cccc(S(=O)(=O)N(C)c2ccccc2)c1 | inconclusive: 20 µM [quencher, side channel, single point] | –
CC(=O)Nc1ccc(-c2csc(NC(=O)CC(NC(C)=O)c3ccccc3)n2)cc1 (stereo unspecified) | inconclusive: 14.1 µM [quencher, side channel, partial curve] | –
COc1ccc(-c2nnc(-c3ccc(N(C)C)cc3)o2)cc1 | inactive | –
C=CCN(C(=O)Cn1nc(C)n2c(cc3cc(C)ccc32)c1=O)c1ccccc1 | inconclusive: 12.6 µM [inhibitor, partial curve] | –
CCC(=O)Nc1cc2nn(-c3ccc(OC)cc3)nc2cc1C | inactive | –
Cc1noc(C)c1CSc1nc2sc(C)c(C)c2c(=O)n1-c1ccccc1 | inconclusive: 20 µM [fluorescent, side channel, partial curve] | –
CO[C@@H]1COC(=O)C/C=C\[C@H](C)[C@H](OC)COC(=O)[C@H](C)NC(=O)C/C=C\[C@H]1C | – | inactive: 9.85% [at 11.7 µM]
COc1ccc(OCCn2c(NC(=O)c3ccco3)nc3ccccc32)cc1 | inconclusive: 35.5 µM [quencher, single point] | –

SMILES | Potency | FP activity change, negative = inhibition
O=C(NCCNc1ccc([N+](=O)[O-])cc1)c1ccccc1F | inactive | –
COc1ccc2cc(C(=O)C3CCCN(Cc4cccc(C)n4)C3)ccc2c1 (stereo unspecified) | inconclusive: 3.16 µM [fluorescent, side channel, partial curve, poor fit] | –
Cc1ccc2[nH]c3c(c2c1)CCc1cn[nH]c1-3 | inconclusive: 20 µM [quencher, side channel, partial curve] | –
CCC(=O)Nc1ccc(Nc2nc(Cl)nc(Nc3ccc(NC(=O)CC)cc3)n2)cc1 | inconclusive: 39.8 µM [inhibitor, single point] | –
Nc1nnc(-c2cc3ccccc3oc2=O)s1 | inactive | –
Cc1cccc(N=Cc2c(O)cc(C)oc2=O)c1 | inconclusive: 11.2 µM [inhibitor, partial curve, poor fit] | –
Cc1ccc(S(=O)(=O)Oc2ccc3ccc(O)cc3c2)cc1 | inconclusive: 22.4 µM [quencher, side channel, partial curve] | –
N#Cc1c(N)sc2c1CCCCCC2 | inactive | –
Cc1cccc(-n2c(SCC(=O)Nc3ccc4c(c3)OCO4)nnc2-c2ccoc2C)c1 | inconclusive: 28.2 µM [fluorescent, side channel, partial curve] | –
COc1cccc(Nc2ncc3nc(-c4ccccc4)c(=O)n(C[C@H]4CCCO4)c3n2)c1 | inconclusive: 3.98 µM [quencher, side channel, full curve] | –
O=C(Cc1cccc2ccccc12)N/N=C/c1ccc(Sc2cccc3cccnc23)o1 | inconclusive: 39.8 µM [quencher, side channel, single point] | –
COc1ccc(CN(CC(=O)NCc2ccc(F)cc2)C(=O)CCC(=O)Nc2nccs2)cc1 | inconclusive: 35.5 µM [fluorescent, side channel, single point] | –
O=C1Cc2ccccc2C(=O)N1Cc1ccccc1 | inconclusive: 25.1 µM [quencher, side channel, partial curve] | –
CCc1cccc(CC)c1NC(=O)C1SC(=Nc2ccccc2C)C(c2nc3ccccc3s2)=C1N (stereo unspecified) | inconclusive: 12.6 µM [inhibitor, partial curve] | –
N#CC(C#N)=C/C(C#N)=C(/N)N1CCN(c2ccc(Cl)cc2)CC1 | inconclusive: 15.8 µM [quencher, side channel, partial curve] | –
CCCCNC(=S)N/N=C/c1sccc1C | inconclusive: 39.8 µM [inhibitor, single point] | –
O=C(NCCN1CCCC1)c1cccc(Cl)c1 | inactive | –
Cc1sc(NC(=O)c2ccco2)c(CN2CCN(Cc3ccccc3)CC2)c1C | inconclusive: 1.12 µM [inhibitor, full curve, poor fit] | –
Cc1ccccc1C(=O)Nc1cccc(C(=O)Nc2ccccc2C(=O)O)c1 | inconclusive: 28.2 µM [quencher, side channel, single point] | –
Cc1cc(C)nc(N2CCC(C(=O)NCCc3ccc(F)cc3)CC2)n1 | inconclusive: 15.8 µM [inhibitor, partial curve] | –
Cc1cccc(NC(=O)c2sc3nc(N)c(C#N)cc3c2N)c1 | inconclusive: 22.4 µM [quencher, side channel, partial curve] | –

SMILES | Potency | FP activity change, negative = inhibition
Oc1nc(Nc2ccc(Cl)cc2Cl)sc1/C=C1\C=Nc2ccccc21 | inconclusive: 39.8 µM [quencher, side channel, single point] | –
COc1ccc(CNC(=O)CN2C(=O)CC(c3ccccc3)=Nc3ccccc32)cc1 | inconclusive: 11.2 µM [inhibitor, partial curve] | –
CSc1nc2ccc(NC(=O)c3ccc(Cl)s3)cc2s1 | inconclusive: 8.91 µM [quencher, side channel, full curve] | –
Cc1ccc(CNC(=O)CNS(=O)(=O)c2ccc(Br)s2)cc1 | inconclusive: 28.2 µM [fluorescent, side channel, single point] | –
CCCOc1ccc(N)cc1N | inconclusive: 1 µM [inhibitor, full curve, poor fit] | –
Cc1ccc(NC(=O)Cc2ccc(-c3ccccc3)cc2)nc1 | inconclusive: 39.8 µM [quencher, side channel, single point] | –
Cc1ccccc1NC(=O)c1nc[nH]c1C(=O)NCc1ccccc1 | inconclusive: 20 µM [quencher, side channel, single point] | –
O=C(c1cccc(Br)c1)N1CCCc2ccccc21 | inconclusive: 44.7 µM [inhibitor, single point] | –
O=C(O)CSc1nc2ccccc2nc1Cc1ccccc1F | inconclusive: 35.5 µM [quencher, side channel, single point] | –
Cc1cc(NC(=O)CCCC(=O)OCC(F)(F)C(F)F)cc(C)c1C(=O)O | inconclusive: 12.6 µM [inhibitor, single point] | –
COc1ccc(NC(=O)CCCNS(=O)(=O)c2cccs2)cc1 | inactive | –
Cc1ccc(S(=O)(=O)N2Cc3ccccc3CC2C(=O)Nc2ccc3c(c2)OCO3)cc1 (stereo unspecified) | inconclusive: 17.8 µM [quencher, side channel, partial curve] | –
O=C(CO/N=C/c1cccc([N+](=O)[O-])c1)Nc1ccc2ccccc2c1 | inconclusive: 25.1 µM [quencher, side channel, single point] | –
Cc1cccc(C2=NN(c3ccc(Br)cc3)[C@@H](C(=O)N3CCOC3=O)[C@@H]2c2ccccc2)c1 | inconclusive: 28.2 µM [inhibitor, single point] | –
COc1ccc(Cn2c(N)c(C#N)c3nc4ccccc4nc32)cc1OC | inactive | –
O=C(CN1C(=O)NC2(CCCCCCC2)C1=O)N1CCc2ccccc2C1 | inconclusive: 22.4 µM [fluorescent, side channel, single point] | –
c1ccc2c(c1)NC(c1ccncc1)n1c-2nc2ccccc21 (stereo unspecified) | inactive | –
Cc1[nH]nc(-c2ccc(OCc3cnn(-c4ccccc4)c3)cc2O)c1Oc1ccc(F)cc1 | inconclusive: 4.47 µM [quencher, side channel, full curve] | –
NS(=O)(=O)c1ccc(NC(=O)CSc2ccc3ccccc3n2)cc1 | inconclusive: 39.8 µM [fluorescent, side channel, single point] | –
